Screen size: about 48,000 compounds; about 1,200 (2.5%) were called active. Inconclusive results (about 2%) are left out.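 How the source made its calls: active means activation of at least 60% and not above a set upper limit (about 1 call in 100 departs from these limits); inconclusive means activation of 40% to 60%, or above that upper limit; inactive means activation under 40%.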 The list shows a part of the results.
Each compound was assayed against Probable G-protein coupled receptor 32 (Homo sapiens) (UniProt O75388) (assay: qHTS for Agonists of Human Resolvin D1 Receptor DRV1). Conditions: CHO-K1 GPR32 beta-arrestin PathHunter luminescence, 90 min; at 76.9 µM; active compounds read high; zero percent set by DMSO-only wells.
Chain of UniProt O75388 (O75388 whole entry, looked up): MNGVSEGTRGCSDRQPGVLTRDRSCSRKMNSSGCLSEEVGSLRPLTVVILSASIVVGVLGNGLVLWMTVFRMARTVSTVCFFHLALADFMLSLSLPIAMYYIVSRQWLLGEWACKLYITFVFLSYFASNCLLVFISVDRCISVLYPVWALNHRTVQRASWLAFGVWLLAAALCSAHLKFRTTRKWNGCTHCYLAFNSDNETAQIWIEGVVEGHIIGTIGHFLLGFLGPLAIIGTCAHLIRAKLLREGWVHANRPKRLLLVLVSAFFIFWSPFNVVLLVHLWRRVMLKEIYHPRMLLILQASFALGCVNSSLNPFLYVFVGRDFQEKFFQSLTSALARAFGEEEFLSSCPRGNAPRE
Procedure, shortened: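 Readings come from a cell-based beta-arrestin complementation format: CHO-K1 GPR32 stable cells (2,500/well) treated 90 min with compounds, then beta-Gal substrate added for 1 h before chemiluminescence imaging.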
With `COc1ccc(CCNC(=O)CCc2c(C)c3cc4c(C)c(C)oc4cc3oc2=O)cc1` the activation was inactive: -10.8%.
For `Cc1ccc(-c2nn3c(-c4ccccc4)nnc3c3ccccc23)cc1`, the activation was inactive: -20.7%.
For `CC(C)Sc1ncc(Cl)c(C(=O)N(Cc2ccc(F)cc2)C2CCS(=O)(=O)C2)n1` (configuration not stated), the activation was inactive: -9.5%.
For `O=C(Cc1cccs1)NC1CC(=O)N(c2ccc(Cl)cc2)C1` (configuration not stated), the activation was inactive: -6.57%.
For `Cc1cccc(C(=O)OCc2cc(=O)n3nc(C4CCCCC4)sc3n2)c1`, the activation was inactive: -9.25%.
In the case of `CCc1cccc(N2C(=O)CS(=O)(=O)C23C(=O)N(Cc2ccc(F)cc2)c2ccc(C)cc23)c1` (configuration not stated), the activation is reported as inactive: -7.56%.
For `O=C(NCCC1=CCCCC1)c1ccc2c(c1)N(Cc1ccccc1F)C(=O)c1ccccc1S2(=O)=O`, the activation was inactive: -7%.
In the case of `CCOc1ccc(N2CC(NC(=O)Cc3ccccc3)CC2=O)cc1` (configuration not stated), the activation is reported as inactive: -26%.
For `Cc1ccc(NC(=O)CN2C(=O)C(C)(C)c3ccccc32)cc1`, the activation was inactive: -5.88%.
`CC1=C(C(=O)Nc2ccc(C)cc2)C(c2ccc(Cl)cc2)n2nnnc2N1` (configuration not stated) was tested, and the activation was inactive: -2.95%.
For `Cc1ccc(S(=O)(=O)c2nc(-c3ccco3)oc2SCc2ccccc2Cl)cc1`, the activation was inactive: -23.9%.
With `CCOC(=O)c1c(NC(=O)c2ccc(S(=O)(=O)N3CCCC(C)C3)cc2)sc2c1CCN(C(C)C)C2` (configuration not stated) the activation was inactive: -1.94%.
`CCN1c2cc(C)ccc2-n2cccc2C12CCN(C(=O)Nc1cc(OC)c(OC)c(OC)c1)CC2` was tested, and the activation was inactive: -23.6%.
With `COc1ccc(N2CC(NC(=O)COc3ccccc3C)CC2=O)cc1OC` (configuration not stated) the activation was inactive: 10%.
`CCOC(=O)c1cc(-c2ccccc2)n(-c2cccc(C(=O)N(CC)c3ccccc3)c2)c1C` was tested, and the activation was inactive: -23.9%.
`Cc1ccc(-n2c(SCC(=O)Nc3cccc(F)c3)nc3c(oc4ccccc43)c2=O)cc1C` was tested, and the activation was inactive: -5.47%.
`Cc1c2cnn(-c3ccccc3)c(=O)c2c(C)n1C(C)C(=O)Nc1ccc(Br)cc1F` (configuration not stated) was tested, and the activation was inactive: -1.99%.
`CC(C)c1ccc2oc(-c3cccc(NC(=O)c4ccc5c(c4)OCCO5)c3)nc2c1` was tested, and the activation was inactive: -2.17%.
With `Cc1ccc2oc3c(c(=O)c2c1)C(c1cccc(O)c1)N(Cc1ccccc1Cl)C3=O` (configuration not stated) the activation was inactive: -18.6%.
`COc1cccc(NC(=O)C2CCCN2S(=O)(=O)c2ccc3c(c2)C(C)(C)C(=O)N3C)c1` (configuration not stated) was tested, and the activation was inactive: -5.13%.
With `Cc1cc(C)cc(-n2ccn3c(CC(C)(C)CC(=O)O)nnc3c2=O)c1` the activation was inactive: 9.13%.
For `COc1ccc(N2CCN(C(=O)NCc3noc4ccccc34)CC2)cc1`, the activation was inactive: -7.1%.
In the case of `CC(C)OP(=O)(CP(=O)(OC(C)C)OC(C)C)OC(C)C`, the activation is reported as inactive: -8.74%.
In the case of `CC(C)(C)OC(=O)N1CCC(c2c(C(=O)NCc3ccc4c(c3)OCO4)cnn2-c2ccccc2Cl)CC1`, the activation is reported as inactive: -22.7%.
`COc1ccc(C(=O)Nc2nnc(S(=O)(=O)N(CC(C)C)c3ccccc3)s2)cc1` was tested, and the activation was inactive: -4.1%.
`Cc1ccc(Cl)cc1NC(=O)c1ccc2snnc2c1` was tested, and the activation was active: 85.3%.
In the case of `COc1cc(NC(=O)NCCn2nnc3cc(S(=O)(=O)N(C)C)ccc32)cc(OC)c1`, the activation is reported as inactive: 10.7%.
With `Cc1ccc(Cn2c(C(=O)O)c(CNCc3cccs3)c3ccc(C)cc32)cc1` the activation was active: 111%.
In the case of `COc1ccc(NC(=O)c2ccc3c(c2)nnn3C2CCCC2)cc1Cl`, the activation is reported as inactive: -0.977%.
In the case of `CC1=C(C(N)=O)C(c2ccc(F)cc2)n2nc(-c3ccc(N(C)C)cc3)nc2N1` (configuration not stated), the activation is reported as inactive: -8.45%.
For `CCN(C(=O)c1cc(S(=O)(=O)N2CCc3ccccc32)cn1C)c1cccc(C)c1`, the activation was inactive: -26.3%.
In the case of `CNS(=O)(=O)c1cn(CC(=O)Nc2ccc(C)c(N(C)C)c2)cc1S(=O)(=O)NC`, the activation is reported as inactive: -4.91%.
`Cc1ccc(-c2nn(CC(=O)NC3CCCCC3)c3c2cnc2ccccc23)cc1` was tested, and the activation was inactive: -11.2%.
For `Cc1ccc2c(=O)c(C(=O)c3ccc(F)cc3)cn(CC(=O)NCc3ccccc3Cl)c2n1`, the activation was inactive: 0.291%.
`CCc1c(C(=O)NCCc2ccc(N3CCCCC3)cc2)[nH]c2ccc(Cl)cc12` was tested, and the activation was inactive: -15.3%.
With `Oc1ccc(C(O)CNCCCCCCNCC(O)c2ccc(O)c(O)c2)cc1O` (configuration not stated) the activation was inactive: 5.4%.
In the case of `CCN(CCCNC(=O)c1nn(-c2ccc(OC)c(Cl)c2)c(=O)c2c1c1ccccc1n2C)c1cccc(C)c1`, the activation is reported as inactive: -8.95%.
`CCOC(=O)c1ccc(NS(=O)(=O)c2cc(Br)cc3c2N(C(C)=O)C(C)C3)cc1` (configuration not stated) was tested, and the activation was inactive: -3.78%.
In the case of `CCOC(=O)C(=O)Nc1c(C(=O)Nc2cccc(F)c2)oc2ccccc12`, the activation is reported as inactive: 15.3%.
In the case of `COc1ccccc1N1CCN(c2nc3c(S(=O)(=O)c4ccc(C)c(C)c4)nnn3c3ccc(Cl)cc23)CC1`, the activation is reported as inactive: 3.83%.
For `Cc1cccc(-n2ccnc2SCC(=O)Nc2nc3ccccc3s2)c1`, the activation was inactive: -0.342%.
For `Cc1cc2[nH]c(=O)c(=O)[nH]c2cc1S(=O)(=O)N1CCN(c2cccc(C)c2C)CC1`, the activation was inactive: -1.43%.
For `Cc1ccc(Cn2c(CNS(=O)(=O)c3ccc(Cl)s3)nc3cccnc32)cc1`, the activation was inactive: -25.1%.
`Cc1cccc(-c2nc(SCC(=O)NCc3ccco3)c3c(=O)n(C)c(=O)n(C)c3n2)c1` was tested, and the activation was inactive: -4.71%.
`COc1ccc(CNC(=O)c2cc(-c3ccc(C)c(C)c3)n[nH]2)cc1` was tested, and the activation was inactive: 18.8%.
`CCc1c(C)sc(NC(=O)C2c3ccccc3Oc3ccccc32)c1C(=O)OC(C)C` was tested, and the activation was inactive: -1.23%.
In the case of `CCc1ccccc1Nc1cc(C(=O)NC2CCC(C)CC2)c2ccccc2n1` (configuration not stated), the activation is reported as inactive: -0.201%.
`CCOC(=O)c1cccc(NC(=O)C2CCCN(c3nnc(C)c4c(C)n(-c5ccccc5)nc34)C2)c1` (configuration not stated) was tested, and the activation was inactive: 6.92%.
For `O=C(Nc1cc(Cl)cc(Cl)c1)c1cc(S(=O)(=O)N2CCc3ccccc3C2)ccc1F`, the activation was inactive: -21.5%.
In the case of `COc1ccc(C(=O)Nc2c(C(=O)c3ccccc3)oc3ccccc23)cc1`, the activation is reported as inactive: -6.03%.
In the case of `COc1ccc(OC)c(C2C(C(=O)Nc3ccccc3OC)=C(C)Nc3c(C(=O)Nc4ccc(F)cc4)cnn32)c1` (configuration not stated), the activation is reported as inactive: -22.5%.
`Cn1c(=O)c(=O)n(C)c2cc(N3CCOCC3)c(NS(=O)(=O)c3ccc(F)c(Cl)c3)cc21` was tested, and the activation was inactive: -34.1%.

— PubChem BioAssay AID1346428 (National Center for Advancing Translational Sciences (NCATS), 2018)
Further: 0% is about no effect.
